According to PMC6549176:
Results are given in words; binding and its absence hold for the method and conditions named. Binding seen in cells or lysates may run through a third protein. Some entries that bind do so weakly or less than the wild type. Tags and fused reporters may be left off the sequences shown.

Chains of the proteins cited; added tags and fusions are not shown.
UniProt P39081: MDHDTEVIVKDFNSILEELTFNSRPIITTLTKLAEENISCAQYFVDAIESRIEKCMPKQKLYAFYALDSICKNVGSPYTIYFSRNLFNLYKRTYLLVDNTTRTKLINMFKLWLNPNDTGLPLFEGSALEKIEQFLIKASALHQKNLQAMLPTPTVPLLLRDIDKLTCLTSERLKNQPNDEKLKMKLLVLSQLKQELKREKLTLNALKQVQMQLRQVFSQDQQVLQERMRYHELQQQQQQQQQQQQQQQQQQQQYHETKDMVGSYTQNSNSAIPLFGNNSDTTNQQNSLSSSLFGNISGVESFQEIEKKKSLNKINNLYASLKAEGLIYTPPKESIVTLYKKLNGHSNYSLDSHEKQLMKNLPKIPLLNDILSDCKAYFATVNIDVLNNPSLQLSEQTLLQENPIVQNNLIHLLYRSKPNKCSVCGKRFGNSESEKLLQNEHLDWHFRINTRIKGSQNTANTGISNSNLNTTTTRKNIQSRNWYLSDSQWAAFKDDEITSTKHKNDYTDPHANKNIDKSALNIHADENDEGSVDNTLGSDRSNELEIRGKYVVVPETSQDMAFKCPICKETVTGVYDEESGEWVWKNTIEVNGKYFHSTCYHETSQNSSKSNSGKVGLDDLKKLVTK

Molecular target: T1, GST-tagged Yra1p (S. cerevisiae) (UniProt Q12159)
T1 sequence: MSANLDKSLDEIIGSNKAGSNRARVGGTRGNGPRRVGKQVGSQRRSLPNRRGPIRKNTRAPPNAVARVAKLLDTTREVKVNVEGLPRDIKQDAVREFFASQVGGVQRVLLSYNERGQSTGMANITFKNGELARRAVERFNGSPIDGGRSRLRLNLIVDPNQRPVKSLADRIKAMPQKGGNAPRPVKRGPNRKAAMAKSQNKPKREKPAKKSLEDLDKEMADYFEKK
Assay: pull-down; in vitro competition assay: Yra1p-Pcf11p complex immobilised on GST sepharose beads, brief wash, Sgf73p added, released Pcf11p in the supernatant assessed by Western blotting

## Pcf11p (His-tagged, in vitro competition assay) (from UniProt P39081 1-626)
  binding: binds
